{
  "source": "PubChem BioAssay AID1347071",
  "about": "(National Center for Advancing Translational Sciences (NCATS), 2019)",
  "note": "The whole screen tested about 410,000 compounds, of which about 260 (0.063%) were called active. The inconclusive results got no clear call from the source; some entries with a clear call stand among them for comparison. Calls come from the whole dose curve; as a rule, active = well fitted activation curve with a large enough effect; inconclusive = small, poorly fitted or top-dose-only effect; inactive = no such curve, though single readings can be large or run the other way. Potencies of inconclusive entries are left out as doubtful fits. Potency is the fitted concentration of half-maximal effect; tags give direction and shape of the fitted curve.",
  "data": [
    {"test": "qHTS for compounds that reverse cellular toxicity of Amyloid beta (A-beta) peptide in yeast: Primary Screen; note: nearly all actives have a fitted effect of over 55% in size", "conditions": "yeast expressing A-beta42, growth rescue, OD600, 48 h; growth rescue: at 46.1 µM (top of the series), 0% DMSO, 100% iron-clioquinol control", "method_in_brief": "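Yeast growth medium received pinned compounds, then yeast cells expressing toxic A-beta were added; plates incubated at 30 C for 48 hr. Growth read as absorbance at 600 nm, normalized to DMSO and equimolar FeCl3 plus clioquinol controls.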", "values": [
      {"smiles": "CC1CCCN(C2(O)C(=O)Nc3ccc(Br)cc32)C1", "note": "(stereo unspecified)", "Potency": "inconclusive [activator, partial curve]"},
      {"smiles": "O=C(c1ccccc1)C(O)(CN1CCCCC1)c1ccccc1", "note": "(stereo unspecified)", "Potency": "inconclusive [activator, single point]"},
      {"smiles": "CCSc1cc(C)nc2ncnn12", "growth rescue": "inactive: -9.81%"},
      {"smiles": "CC1CC2=C(NC(=S)NC2c2cccc(F)c2)/C(=C/c2cccc(F)c2)C1", "note": "(stereo unspecified)", "Potency": "inconclusive [activator, single point]"},
      {"smiles": "CCOC(=O)c1c(NC(=O)COC(=O)c2ccc([N+](=O)[O-])cc2)sc(C(=O)N(C)C)c1C", "Potency": "inconclusive [activator, full curve, poor fit]"},
      {"smiles": "O=C(NCc1ccc2c(c1)OCO2)c1ccc2c(c1)OCO2", "Potency": "inconclusive [activator, partial curve, poor fit]"},
      {"smiles": "Cc1ccc(NS(=O)(=O)c2sc3ccc(Cl)cc3c2C)cc1", "Potency": "inconclusive [activator, partial curve, poor fit]"},
      {"smiles": "Cc1ccc(-n2nc3c(N4CCCC(C(=O)NCc5ccccc5C)C4)nnc(C)c3c2C)cc1", "note": "(stereo unspecified)", "growth rescue": "inactive: -12.5%"},
      {"smiles": "CCC(C)(C)NC(=O)C(OC(=O)c1cc2sccc2n1C)c1ccc(OC)cc1", "note": "(stereo unspecified)", "growth rescue": "inconclusive: -7.48% [activator]"},
      {"smiles": "CC1(C(=O)NS(=O)(=O)C2CC2)CCCN(C(=O)c2ccco2)C1", "note": "(stereo unspecified)", "growth rescue": "inactive: 1.44%"},
      {"smiles": "CCSc1n[nH]c(=S)s1", "Potency": "inconclusive [activator, partial curve]"},
      {"smiles": "COc1ccc(NC(=O)Cn2c(=O)n(Cc3ccccc3Cl)c(=O)c3cc(OC)c(OC)cc32)cc1", "growth rescue": "inactive: -11.1%"},
      {"smiles": "CCCCN=Cc1sc2ccc(OCC)cc2c1O", "growth rescue": "inactive: -6.57%"},
      {"smiles": "Cc1cccc(NC(=S)NC2CCCC2)c1C", "Potency": "inconclusive [activator, partial curve, poor fit]"},
      {"smiles": "CC1CCN(c2[nH]c(=S)c(C#N)c3c2CCCC3)CC1", "Potency": "inconclusive [activator, partial curve, poor fit]"},
      {"smiles": "Cc1ccc(NC(=O)C2CCC(CNS(=O)(=O)c3cccs3)CC2)cc1C", "note": "(stereo unspecified)", "growth rescue": "inactive: 8.64%"},
      {"smiles": "CCCS(=O)(=O)N1CCCC(C(=O)NC(C)c2ccc3c(c2)OCCO3)C1", "note": "(stereo unspecified)", "growth rescue": "inactive: 3.16%"},
      {"smiles": "COc1cnc(-c2ccccn2)nc1Sc1ccc(F)cc1", "Potency": "active: 10 µM"},
      {"smiles": "Cc1nc([N+](=O)[O-])c(Br)n1CC(=O)c1ccc(Br)cc1", "growth rescue": "inactive: 28%"},
      {"smiles": "CCc1ccc(Nc2nc(-c3cc4cccc(OC)c4oc3=O)c(CC)s2)cc1", "growth rescue": "inactive: -10.3%"},
      {"smiles": "CCCCNC(=O)CN(CCc1ccccc1)S(C)(=O)=O", "growth rescue": "inconclusive: 3.26% [activator]"},
      {"smiles": "COc1ccc(CNC(=S)Nc2cccc(Cl)c2)cc1", "Potency": "inconclusive [activator, single point]"},
      {"smiles": "Cc1ccc(Cn2cc(-c3ccccc3)nn2)cc1", "Potency": "inconclusive [activator, single point]"},
      {"smiles": "O=C(NCc1ccccc1)C(c1ccc(C(F)(F)F)cc1)n1c(=O)c(-c2cc3ccccc3[nH]2)nc2ccccc21", "note": "(stereo unspecified)", "Potency": "inconclusive [activator, partial curve]"},
      {"smiles": "Cc1cc(C)cc(NC(=S)NCc2ccc3[nH]c4c(c3c2)CCCC4)c1", "Potency": "inconclusive [activator, partial curve]"},
      {"smiles": "O=C(CSc1ccc(Cl)cc1)NC(=O)NC1CCCC1", "Potency": "inconclusive [activator, single point]"},
      {"smiles": "CCOC(=S)SCC(=O)Nc1nc(C)c(C)s1", "Potency": "inconclusive [activator, single point]"},
      {"smiles": "Cc1[nH]c(-c2ccccn2)nc(=S)c1Cl", "Potency": "inconclusive [activator, full curve, poor fit]"},
      {"smiles": "CCCCN1C(=O)C(CC(=O)NCCc2ccccn2)CC(C(=O)N(CC)CC)=C1C", "note": "(stereo unspecified)", "growth rescue": "inactive: -13.7%"},
      {"smiles": "O=C(CSC(=S)N1CCCCC1)Nc1ncc2c(n1)CC(c1ccco1)CC2=O", "note": "(stereo unspecified)", "Potency": "inconclusive [activator, partial curve, poor fit]"},
      {"smiles": "Cc1ccccc1NC(=S)N/N=C/C(C)c1ccccc1", "note": "(stereo unspecified)", "Potency": "inconclusive [activator, single point]"},
      {"smiles": "CCOc1ccc(C(=O)Nc2cc(-c3nc4ccccc4[nH]3)ccc2C)cc1[N+](=O)[O-]", "growth rescue": "inactive: -15.8%"},
      {"smiles": "COC(=O)c1c(NC(=O)C(=O)NCC2CCCO2)sc2c1CC(C)(C)OC2", "note": "(stereo unspecified)", "Potency": "inconclusive [activator, single point]"},
      {"smiles": "CCc1ccc2[nH]c(=O)c(CN(CCO)C(=O)NCc3ccccc3)cc2c1", "growth rescue": "inactive: -11.2%"},
      {"smiles": "CCC(C(=O)Nc1cc(C)cc(C)n1)c1ccccc1", "note": "(stereo unspecified)", "Potency": "inconclusive [activator, single point]"},
      {"smiles": "CCNC(=S)N/N=C(\\C)c1ccc2ccccc2c1OC(F)F", "Potency": "active: 5.62 µM"},
      {"smiles": "O=C1c2ccccc2C(=O)N1c1ccccc1", "growth rescue": "inactive: -15.3%"},
      {"smiles": "Cn1c(COc2ccccc2C(C)(C)C)nc2ccccc21", "Potency": "inconclusive [activator, single point]"},
      {"smiles": "Cc1ccnc(SCc2cc(=O)c(OC(=O)c3ccco3)co2)n1", "Potency": "inconclusive [activator, partial curve, poor fit]"},
      {"smiles": "CCOc1ccccc1C(=O)Nc1cc(C(=O)NCCc2ccccc2)ccc1Cl", "growth rescue": "inconclusive: -19.4% [activator]"},
      {"smiles": "NC(=O)c1c(NC(=O)CCCC(=O)O)sc2c1CCCCCC2", "Potency": "inconclusive [activator, partial curve]"},
      {"smiles": "C/C(=N\\N(c1ccccc1)c1ccccc1)c1ccc(N)cc1", "Potency": "inconclusive [activator, single point]"},
      {"smiles": "C/C(CC(=O)Nc1cc(C)ccn1)=N\\NC(=O)c1ccncc1", "Potency": "inconclusive [activator, single point]"},
      {"smiles": "O=C(Nc1ccccc1-c1ccccc1)c1ccc(Cl)c([N+](=O)[O-])c1", "Potency": "inconclusive [activator, partial curve]"},
      {"smiles": "COc1ccccc1Oc1ccc(N2CC(C(=O)OCC(=O)c3ccc(F)cc3)CC2=O)cc1", "note": "(stereo unspecified)", "Potency": "inconclusive [activator, single point]"},
      {"smiles": "COc1cccc(/C=C/c2ccc3cccc(O)c3n2)c1OC", "growth rescue": "inactive: 15%"}
    ]}
  ]
}
